According to PubChem BioAssay AID588342 (National Center for Advancing Translational Sciences (NCATS), 2011):
In all, about 360,000 compounds went through this assay and about 25,000 (6.9%) were called active. This list was built around the results that the source calls inconclusive (neither active nor inactive); the mix of calls is not that of the screen. Calls follow the shape of the dose curve; as a rule, active = well fitted inhibition curve with a large enough effect; inconclusive = small, poorly fitted or top-dose-only effect; inactive = flat fitted curve, though single readings scatter. Where the call is inconclusive, the potency comes from a doubtful curve fit.

molecular target: Luciferin 4-monooxygenase (Photinus pyralis) (UniProt P08659); experiment: qHTS profiling assay for firefly luciferase inhibitor/activator using purifed enzyme and Km concentrations of substrates (counterscreen for miR-21 project); conditions: purified FLuc, luminescence inhibition; series mostly up to 57.5 µM; also: nearly all actives have a fitted effect of over 55% in size
UniProt P08659, sequence (P08659 whole entry, looked up): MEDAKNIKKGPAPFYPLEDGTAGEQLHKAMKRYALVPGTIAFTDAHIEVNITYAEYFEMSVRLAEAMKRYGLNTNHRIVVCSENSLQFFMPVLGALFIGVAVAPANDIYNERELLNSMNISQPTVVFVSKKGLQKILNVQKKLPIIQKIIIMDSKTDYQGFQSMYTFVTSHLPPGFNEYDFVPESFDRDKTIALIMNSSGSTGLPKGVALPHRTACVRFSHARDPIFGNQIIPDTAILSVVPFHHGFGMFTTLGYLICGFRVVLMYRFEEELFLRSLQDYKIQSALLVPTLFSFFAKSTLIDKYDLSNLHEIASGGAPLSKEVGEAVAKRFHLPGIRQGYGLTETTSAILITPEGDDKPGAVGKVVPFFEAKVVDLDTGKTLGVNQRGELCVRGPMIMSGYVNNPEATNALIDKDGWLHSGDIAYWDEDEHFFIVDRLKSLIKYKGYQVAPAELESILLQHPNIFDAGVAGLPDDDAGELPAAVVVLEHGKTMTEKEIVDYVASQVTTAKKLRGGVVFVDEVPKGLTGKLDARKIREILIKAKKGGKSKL
Outline: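 Purified P. pyralis luciferase, 10 nM final, with Km-level 10 uM D-luciferin and 10 uM ATP in 50 mM Tris acetate pH 7.5, 10 mM Mg acetate, 0.01% Tween-20, 0.05% BSA; 6-point qHTS titration about 60 µM downward; luminescence read.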
Potency is read from the fitted curve at half-maximal effect; tags tell the direction and shape of the fitted curve.

Compound | Potency
CCOc1ccc(C(=O)NCc2ccco2)cc1 | inconclusive: 16.9 µM [inhibitor, partial curve, poor fit]
O=C(OCc1ccccc1)/C(=C/c1cccc(Br)c1)NC(=O)c1ccco1 | inactive
COc1ccc(/C=C/C(=O)NC(=S)N2CCCC(C(N)=O)C2)cc1 (configuration not stated) | inconclusive: 19 µM [inhibitor, partial curve, poor fit]
O=C(Nc1ccc(Br)cc1)c1ccc(N2C(=O)C3CC=C(Cl)CC3C2=O)cc1 (configuration not stated) | inactive
CCOC(=O)c1c(C)oc2c1c1c(c3ccccc32)OCN(Cc2ccccn2)C1 | inconclusive: 30.1 µM [inhibitor, partial curve, poor fit]
O=C(N/N=C/c1cccc(O)c1)c1cc(C2CC2)nc2ccccc12 | inconclusive: 37.9 µM [inhibitor, single point]
COc1ccc(-c2nsc3c(N4CCN(C(=O)c5ccco5)CC4)ncnc23)cc1 | inconclusive: 15.1 µM [inhibitor, partial curve]
Cc1c(C(=O)O)sc2[nH]c(=O)n(Cc3ccccc3)c(=O)c12 | inactive
CCCOC(=O)CSc1nnc(-c2ccccc2)o1 | inactive
COc1cccc(C(=O)Oc2ccc(N3C(=O)CCC3=O)c(C)c2)c1 | inconclusive: 26.9 µM [inhibitor, single point]
CCOC(=O)c1ccccc1NC(=O)c1cc2ccc3cccnc3c2[nH]1 | inconclusive: 30.1 µM [inhibitor, partial curve, poor fit]
O=C(N/N=C1\CCCCc2ccccc21)c1ccccn1 | inconclusive: 19 µM [inhibitor, partial curve]
O=C(O)c1ccc(/C=N/NC(=O)c2cc(-c3ccc4c5c(cccc35)CC4)n[nH]2)cc1 | active: 21.3 µM
Cc1ccc(OCCSc2nc3ccccc3n2CC(=O)O)cc1C | inconclusive: 30.1 µM [inhibitor, partial curve, poor fit]
CCc1ccc(NC(=O)CSc2nc(O)cc(=O)n2C2CCCC2)cc1 | inconclusive: 37.9 µM [inhibitor, partial curve, poor fit]
CC(C)NC(=O)c1ccc2c(c1)nc1n2CCCCC1 | inconclusive: 37.9 µM [inhibitor, partial curve, poor fit]
O=C(O)CCCCCn1c(O)c(C=C2N=c3ccccc3=N2)sc1=S | active: 9.53 µM
COc1cc2ccccc2cc1C(=O)Nc1ccc(Cl)cn1 | inconclusive: 1.69 µM [inhibitor, full curve]
Nc1c(N=Nc2cccc(Cl)c2)c(=O)[nH]n1-c1ccccc1 | inactive
Cn1nc(C(=O)N2CCN(c3ccccc3F)CC2)c2c1-c1ccccc1S(=O)(=O)C2 | inconclusive: 9.53 µM [inhibitor, partial curve, poor fit]
Nc1cc(N)cc(-c2nc3ccccc3[nH]2)c1 | active: 23.9 µM
CCOC(=O)c1c(C)[nH]c(C(=O)Cn2c(=O)c3c(ncn3CC)n(Cc3ccccc3)c2=O)c1C | inactive
O=C(COc1cccc2ccccc12)N1CCN(c2ccccn2)CC1 | inconclusive: 37.9 µM [inhibitor, partial curve, poor fit]
COc1cc(N)c(Cc2nccc3cc(OC)c(OC)cc23)cc1OC | inactive

Compound | Potency
O=[N+]([O-])c1ccc(COc2ccccc2/C=N/O)cc1 | inconclusive: 7.57 µM [inhibitor, partial curve]
CC(C)c1ccc(CNc2nc(-c3ccco3)nn2S(=O)(=O)c2ccc(F)cc2)cc1 | inactive
Cc1cccc(N2CCN(Cc3cc(=O)oc4cc(C)ccc34)CC2C)c1 (configuration not stated) | inactive
CCN1CC(CN(C)Cc2cn(-c3ccc(C)cc3)nc2-c2ccc(F)cc2)CC1=O (configuration not stated) | inconclusive: 37.9 µM [inhibitor, partial curve, poor fit]
CC(C)(C)c1cc(C(=O)NCc2cc(F)cc3c2OCOC3)n(Cc2ccccc2)n1 | inconclusive: 15.1 µM [inhibitor, partial curve]
CC(=O)NC1C(=O)N=C(SCC(=O)Nc2sc3c(c2C#N)CCCCCC3)NC1=O (configuration not stated) | inconclusive: 12 µM [inhibitor, partial curve]
CC(C)(C)C1CCc2onc(C(=O)Nc3sc4c(c3C#N)CCCC4)c2C1 (configuration not stated) | inconclusive: 21.3 µM [inhibitor, partial curve, poor fit]
O=C(COC(=O)c1ccc2ccccc2n1)NCc1ccccc1 | inactive
CN(C(=O)COC(=O)c1nn(C)c(=O)c2ccccc12)c1c(N)n(Cc2ccccc2)c(=O)[nH]c1=O | inactive
COc1ccc(C(O)c2nccc3cc(OC)c(OC)cc23)cc1OC (configuration not stated) | inactive
CCOc1ccc(OCC(=O)NCCS(=O)(=O)N2CCN(c3cccc(Cl)c3)CC2)cc1 | inactive
Cc1cc(C)cc(C(=O)NCCc2sc(-c3ccc(F)cc3)nc2C)c1 | inconclusive: 13.5 µM [inhibitor, partial curve]
Cc1ccc(Nc2nc(-c3ccc(O)cc3O)cs2)nc1 | active: 2.39 µM
CCOc1ccc(NC(=O)c2ccccc2OCC(=O)c2ccc(C)cc2)cc1 | active: 5.36 µM
S=c1[nH]nc(-c2ccc(Cl)cc2Cl)n1-c1ccccc1 | inconclusive: 23.9 µM [inhibitor, single point]
COc1ccc(NC(=S)N2CCN(Cc3ccco3)CC2)c(OC)c1 | inconclusive: 19 µM [inhibitor, single point]
Cc1ccccc1-c1coc2cc(O)ccc2c1=O | inactive
O=C(CN1C(=O)NC2(CCCC2)C1=O)Nc1ccc(C(F)(F)F)cc1 | inactive
Cn1c(=O)c2c(nc(CN3CCN(c4ccccc4F)CC3)n2Cc2ccc(F)cc2)n(C)c1=O | inactive
Cc1cc(NS(=O)(=O)c2ccc(NC(=O)c3ccc(Cl)cc3Cl)cc2)no1 | inconclusive: 21.3 µM [inhibitor, single point]
COC(=O)CSc1nnc(CNC(=O)c2cc(OC)cc(OC)c2)n1-c1ccc(F)cc1 | inactive
CC(C)CCOc1ccc(Cl)cc1CN1CCOCC1 | inconclusive: 37.9 µM [inhibitor, partial curve, poor fit]
CCOc1ccc(NC(=O)c2cnccn2)cc1 | active: 5.36 µM
CCOC(=O)c1c(C)[nH]c(C(=O)COC(=O)CCC(=O)c2ccc3c(c2)OCCO3)c1C | inconclusive: 30.1 µM [inhibitor, partial curve, poor fit]

Compound | Potency
CN(C(=O)COC(=O)c1cc([N+](=O)[O-])ccc1Sc1ccccc1)C1CCS(=O)(=O)C1 (configuration not stated) | inactive
CNC(=O)c1ccccc1NC(=O)c1ccc(C)c(S(=O)(=O)N2CCCCC2)c1 | inconclusive: 26.9 µM [inhibitor, partial curve, poor fit]
COc1ccc(CCNC(=O)c2ccc3nc(N4CCCCC4)sc3c2)cc1OC | inconclusive: 16.9 µM [inhibitor, partial curve]
N#Cc1c(N2CCN(C(=O)c3ccco3)CC2)nc(-c2ccccc2)c2c1CCCC2 | inactive
O=C(N/N=C/c1ccncc1)c1ccccn1 | inconclusive: 21.3 µM [inhibitor, single point]
Cc1ccc(-c2cccc(NC(=O)C3C4C=CC(C4)C3C(=O)O)c2)o1 (configuration not stated) | inconclusive: 37.9 µM [inhibitor, single point]
COc1ccc(/C=N/Nc2cc(C)nc(-n3nc(C)cc3C)n2)c(OC)c1 | active: 16.9 µM
O=C(CCC1CCCN(C(=O)Cc2cccc(F)c2)C1)N1CCN(c2ccccn2)CC1 (configuration not stated) | inconclusive: 23.9 µM [inhibitor, single point]
CCc1cc(C(=O)O)c(NC(=O)c2cc(OC)c(OC)c(OC)c2)s1 | active: 8.49 µM
O=C(C1CC1)N1CCc2cc(Br)cc(S(=O)(=O)Nc3ccc(F)c(F)c3)c21 | inconclusive: 26.9 µM [inhibitor, partial curve, poor fit]
O=C(/C=C/c1ccccc1)NCCc1ccc2c(c1)OCCO2 | inconclusive: 23.9 µM [inhibitor, partial curve, poor fit]
CCOc1ccc(N(CC(=O)NCc2ccccc2OC)S(C)(=O)=O)cc1 | inconclusive: 19 µM [inhibitor, single point]
CCc1ccc(/C=C(/C#N)c2nc(-c3ccc(C)cc3)cs2)cc1 | inactive
CCCCNC(=O)CCC(=O)Nc1ccc2nc(N3CCC(C)CC3)cc(C)c2c1 | inconclusive: 15.1 µM [inhibitor, partial curve, poor fit]
O=C(O)C1CCN(C(=O)CSc2nc3cc(Cl)ccc3c(=O)n2Cc2ccccc2)CC1 | inactive
O=C(NCCCN1CCCC1=O)C1CCN(S(=O)(=O)c2cccc(Cl)c2Cl)CC1 | inactive
CCCCOc1ccc(CSc2nncn2N)cc1 | inconclusive: 21.3 µM [inhibitor, partial curve]
O=c1c2c(ncn1Cc1ccccc1)nc1n2CCC1 | inactive
CC(C)CN1CCC(Oc2cccc(C(=O)NCCc3ccccc3)c2)CC1 | inconclusive: 21.3 µM [inhibitor, partial curve]
COCCNCCCCOc1ccccc1-c1ccccc1 | inactive
CSc1ccccc1OCc1cc(C(=O)N2CCC(Oc3cccnc3)CC2)no1 | inconclusive: 21.3 µM [inhibitor, single point]
Cc1ccc(N2C(=O)N(CC(=O)N3c4ccccc4CC3C)C(=O)C2C)cc1 (configuration not stated) | inactive
CN(CC(=O)Nc1ccccc1Br)C(=O)CNC(=O)c1ccc(Oc2ccccc2)cc1 | active: 15.1 µM
COc1ccc(-c2cn(Cc3cccc(OC)c3)nn2)cc1 | inconclusive: 26.9 µM [inhibitor, partial curve, poor fit]
